Measurements published in the supplement of paper PMC4604168 (melanoma cell lines).
The list shows a part of the results. Most values come without repeats; read them as rough.
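Also: cells treated in 1,536-well plates, then fixed and DAPI-stained, with nuclei counted from automated high-throughput microscope images.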

Each compound was assayed on LB2518-MEL (assay: cell count relative to DMSO control; melanoma cells; higher = more viable cells). Settings: library dose: standard library concentration; 72 h; first compound 2 µM.
Compound `C[C@@H](N)c1ccc(C(=O)Nc2ccnc3[nH]ccc23)cc1` + CCCCCCCCc1ccc(CCC(N)(CO)CO)cc1 [fingolimod] (partner dose 10 µM) has a cell count of 0.75%.
For `Cn1sc(=O)n(Cc2ccccc2)c1=O` + C[C@]1(O)C[C@@H](c2nc(-c3ccc4ccc(-c5ccccc5)nc4c3)c3c(N)nccn32)C1 [OSI906] (partner dose 2 µM), the cell count was 102%.
`Cn1sc(=O)n(Cc2ccccc2)c1=O` + NC(=O)c1ccc(N(C(N)=O)c2c(F)cccc2F)nc1-c1ccc(F)cc1F [VX702] (partner dose 2 µM) showed a cell count of 112%.
`C[C@@H](N)c1ccc(C(=O)Nc2ccnc3[nH]ccc23)cc1` + Cn1cnc2c(F)c(Nc3ccc(Br)cc3Cl)c(C(=O)NOCCO)cc21 [selumetinib] (partner dose 0.075 µM) showed a cell count of 35%.
In the case of `CCCCCCCCCCCCCCCCCCOP(=O)([O-])OC1CC[N+](C)(C)CC1` [Perifosine] + CC(C)C[C@H](NC(=O)[C@H](Cc1ccccc1)NC(=O)c1cnccn1)B(O)O [Bortezomib] (partner dose 0.005 µM), the cell count is reported as 3.55%.
Compound `C[C@@H](N)c1ccc(C(=O)Nc2ccnc3[nH]ccc23)cc1` + CNC(=O)c1cc(Oc2ccc(NC(=O)Nc3ccc(Cl)c(C(F)(F)F)c3)cc2)ccn1 [sorafenib] (partner dose 2 µM) has a cell count of 111%.
`CCCCCCCCCCCCCCCCCCOP(=O)([O-])OC1CC[N+](C)(C)CC1` [Perifosine] + C[C@]1(O)C[C@@H](c2nc(-c3ccc4ccc(-c5ccccc5)nc4c3)c3c(N)nccn32)C1 [OSI906] (partner dose 2 µM) showed a cell count of 82.2%.
`CCCCCCCCCCCCCCCCCCOP(=O)([O-])OC1CC[N+](C)(C)CC1` [Perifosine] + NC1(c2ccc(-c3nc4ccn5c(=O)[nH]nc5c4cc3-c3ccccc3)cc2)CCC1 [MK2206] (partner dose 2 µM) was tested, and the cell count was 79.6%.
With `CCCCCCCCCCCCCCCCCCOP(=O)([O-])OC1CC[N+](C)(C)CC1` [Perifosine] + O=c1[nH]nc(Sc2ncc([N+](=O)[O-])s2)n1-c1ccc2c(c1)OCCO2 [BI78D3] (partner dose 1 µM) the cell count was 98.8%.
Compound `C[C@@H](N)c1ccc(C(=O)Nc2ccnc3[nH]ccc23)cc1` + NC1(c2ccc(-c3nc4ccn5c(=O)[nH]nc5c4cc3-c3ccccc3)cc2)CCC1 [MK2206] (partner dose 2 µM) has a cell count of 100%.
In the case of `CCCCCCCCCCCCCCCCCCOP(=O)([O-])OC1CC[N+](C)(C)CC1` [Perifosine] + Cc1cn(-c2cc(NC(=O)c3ccc(C)c(Nc4nccc(-c5cccnc5)n4)c3)cc(C(F)(F)F)c2)cn1 [nilotinib] (partner dose 1 µM), the cell count is reported as 102%.
`Cn1sc(=O)n(Cc2ccccc2)c1=O` + CN(c1ncccc1CNc1nc(Nc2ccc3c(c2)CC(=O)N3)ncc1C(F)(F)F)S(C)(=O)=O [PF562271] (partner dose 0.4 µM) showed a cell count of 98.6%.
`C[C@@H](N)c1ccc(C(=O)Nc2ccnc3[nH]ccc23)cc1` + C=C(c1ccc(C(=O)O)cc1)c1cc2c(cc1C)C(C)(C)CCC2(C)C [Bexarotene] (partner dose 10 µM) showed a cell count of 100%.
`CCCCCCCCCCCCCCCCCCOP(=O)([O-])OC1CC[N+](C)(C)CC1` [Perifosine] + Cc1cc(Nc2cc(N3CCN(C)CC3)nc(/C=C/c3ccccc3)n2)n[nH]1 [ENMD2076] (partner dose 0.2 µM) showed a cell count of 75.7%.
With `C[C@@H](N)c1ccc(C(=O)Nc2ccnc3[nH]ccc23)cc1` + CN(NC(=O)CC(=O)NN(C)C(=S)c1ccccc1)C(=S)c1ccccc1 [STA4783] (partner dose 0.03 µM) the cell count was 12%.
`Cn1sc(=O)n(Cc2ccccc2)c1=O` + COc1cc(Nc2ncc(F)c(Nc3ccc4c(n3)NC(=O)C(C)(C)O4)n2)cc(OC)c1OC [Tamatinib] (partner dose 2 µM) was tested, and the cell count was 97.1%.
Work on `CCCCCCCCCCCCCCCCCCOP(=O)([O-])OC1CC[N+](C)(C)CC1` [Perifosine] + OCc1c[nH]c2ccccc12 [Indole-3-carbinol] (partner dose 4 µM) yielded a cell count of 91.5%.
`C[C@@H](N)c1ccc(C(=O)Nc2ccnc3[nH]ccc23)cc1` + CS(=O)(=O)CCNCc1ccc(-c2ccc3ncnc(Nc4ccc(OCc5cccc(F)c5)c(Cl)c4)c3c2)o1 [lapatinib] (partner dose 4 µM) gave a cell count of 79.3%.
Work on `Cn1sc(=O)n(Cc2ccccc2)c1=O` + O=C(O)c1ccc(-c2c[nH]c3ncc(-c4ccccc4)cc23)cc1C1CCCC1 [GSK650394] (partner dose 0.8 µM) yielded a cell count of 109%.
Work on `Cn1sc(=O)n(Cc2ccccc2)c1=O` + Cn1nnc2c(C(N)=O)ncn2c1=O [temozolomide] (partner dose 10 µM) yielded a cell count of 96.9%.
